# From the supplement of paper PMC8728848
# This is one part of the list.
# B1: Cohesin-hDCIR (Homo sapiens) (protein)
# chain: LDDLDAVRIKVDTVNAKPGDTVRIPVRFSGIPSKGIANCDFVYSYDPNVLEIIEIEPGDIIVDPNPDKSFDTAVYPDRKIIVFLFAEDSGTGAYAITKDGVFATIVAKVKEGAPNGLSVIKFVEVGGFANNDLVEQKTQFFDGGANVGDTTEPATPTTPVTTPTTTDDLDAASQKYSQLLEKKTTKELVHTTLECVKKNMPVEETAWSCCPKNWKSFSSNCYFISTESASWQDSEKDCARMEAHLLVINTQEEQDFIFQNLQEESAYFVGLSDPEGQRHWQWVDQTPYNESSTFWHPREPSDPNERCVVLNFRKSPKRWGWNDVNCLGPQRSVCEMMKIHLHHHHHH
# Legend:
# Assay in all cases: glycan array binding signal (z-score within array); higher = stronger binding
# Conditions in all cases: glycan notation: IUPAC condensed, linker removed
# [1] = molecular target: Man(a1-2)Man(a1-3)[Man(a1-2)Man(a1-6)]Man(a1-6)[Man(a1-2)Man(a1-2)Man(a1-3)]Man
# Procedure, shortened: (§1)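 Glycan array data came from 3228 arrays in the Consortium for Functional Glycomics database, and only arrays with an available protein sequence were kept. Glycan names were put into IUPAC-condensed notation, and columns mapping to the same glycan were averaged. The binding signal is a within-array Z-score, averaged across arrays of one protein sequence run at different concentrations or buffers and across linkers. A negative Z-score can be read as non-binding.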
# [2] = molecular target: Man(a1-2)Man(a1-3)[Man(a1-2)Man(a1-6)]Man(a1-6)[Man(a1-2)Man(a1-2)Man(a1-3)]Man(b1-4)GlcNAc(b1-4)GlcNAc
# Procedure, shortened: as §1
# [3] = molecular target: Man(a1-2)Man(a1-3)[Man(a1-6)]Man(a1-6)[Man(a1-2)Man(a1-3)]Man(b1-4)GlcNAc(b1-4)GlcNAc
# Procedure, shortened: as §1
# [4] = molecular target: Man(a1-2)Man(a1-6)[Man(a1-3)]Man(a1-6)[Man(a1-2)Man(a1-2)Man(a1-3)]Man
# Procedure, shortened: as §1
# [5] = molecular target: Man(a1-2)Man(a1-6)[Man(a1-3)]Man(a1-6)[Man(a1-2)Man(a1-2)Man(a1-3)]Man(b1-4)GlcNAc(b1-4)GlcNAc
# Procedure, shortened: as §1
# Man(a1-3)[Man(a1-6)]Man = molecular target: Man(a1-3)[Man(a1-6)]Man
# Procedure, shortened: as §1
# [6] = molecular target: Man(a1-3)[Man(a1-6)]Man(a1-6)[Man(a1-2)Man(a1-3)]Man(b1-4)GlcNAc(b1-4)GlcNAc
# Procedure, shortened: as §1
# [7] = molecular target: Man(a1-3)[Man(a1-6)]Man(a1-6)[Man(a1-3)]Man
# Procedure, shortened: as §1
# [8] = molecular target: Man(a1-3)[Man(a1-6)]Man(a1-6)[Man(a1-3)]Man(b1-4)GlcNAc(b1-4)GlcNAc
# Procedure, shortened: as §1
# [9] = molecular target: Man(a1-3)[Man(a1-6)]Man(b1-4)GlcNAc(b1-4)GlcNAc
# Procedure, shortened: as §1
# [10] = molecular target: Man(a1-3)[Man(a1-6)]Man(b1-4)GlcNAc(b1-4)[Fuc(a1-6)]GlcNAc
# Procedure, shortened: as §1
# Man(a1-6)Man = molecular target: Man(a1-6)Man
# Procedure, shortened: as §1
# Man(b1-4)GlcNAc = molecular target: Man(b1-4)GlcNAc
# Procedure, shortened: as §1
# MurNAc(b1-4)GlcNAc = molecular target: MurNAc(b1-4)GlcNAc
# Procedure, shortened: as §1
# Neu5Ac(a2-3)Gal = molecular target: Neu5Ac(a2-3)Gal
# Procedure, shortened: as §1
# [11] = molecular target: Neu5Ac(a2-3)Gal(b1-3)GalNAc
# Procedure, shortened: as §1
# [12] = molecular target: Neu5Ac(a2-3)Gal(b1-3)GalNAc(b1-3)Gal(a1-4)Gal(b1-4)Glc
# Procedure, shortened: as §1
# [13] = molecular target: Neu5Ac(a2-3)Gal(b1-3)GalNAc(b1-4)[Neu5Ac(a2-3)]Gal(b1-4)Glc
# Procedure, shortened: as §1
# [14] = molecular target: Neu5Ac(a2-3)Gal(b1-3)GalNAc(b1-4)[Neu5Ac(a2-8)Neu5Ac(a2-3)]Gal(b1-4)Glc
# Procedure, shortened: as §1
# [15] = molecular target: Neu5Ac(a2-3)Gal(b1-3)GalNAc6S
# Procedure, shortened: as §1
# [16] = molecular target: Neu5Ac(a2-3)Gal(b1-3)GlcNAc
# Procedure, shortened: as §1
# [17] = molecular target: Neu5Ac(a2-3)Gal(b1-3)GlcNAc(b1-2)Man
# Procedure, shortened: as §1
# [18] = molecular target: Neu5Ac(a2-3)Gal(b1-3)GlcNAc(b1-2)Man(a1-3)[GlcNAc(b1-4)][Neu5Ac(a2-3)Gal(b1-3)GlcNAc(b1-2)Man(a1-6)]Man(b1-4)GlcNAc(b1-4)GlcNAc
# Procedure, shortened: as §1
# [19] = molecular target: Neu5Ac(a2-3)Gal(b1-3)GlcNAc(b1-2)Man(a1-3)[Neu5Ac(a2-3)Gal(b1-3)GlcNAc(b1-2)Man(a1-6)]Man(b1-4)GlcNAc(b1-4)GlcNAc
# Procedure, shortened: as §1
# [20] = molecular target: Neu5Ac(a2-3)Gal(b1-3)GlcNAc(b1-3)Gal(b1-3)GlcNAc
# Procedure, shortened: as §1
# [21] = molecular target: Neu5Ac(a2-3)Gal(b1-3)GlcNAc(b1-3)Gal(b1-4)GlcNAc
# Procedure, shortened: as §1
# [22] = molecular target: Neu5Ac(a2-3)Gal(b1-3)GlcNAc(b1-3)GalNAc
# Procedure, shortened: as §1
# [23] = molecular target: Neu5Ac(a2-3)Gal(b1-3)GlcNAc(b1-4)Gal(b1-4)Glc
# Procedure, shortened: as §1
# [24] = molecular target: Neu5Ac(a2-3)Gal(b1-3)GlcNAc(b1-6)GalNAc
# Procedure, shortened: as §1
# [25] = molecular target: Neu5Ac(a2-3)Gal(b1-3)GlcNAc6S
# Procedure, shortened: as §1
# [26] = molecular target: Neu5Ac(a2-3)Gal(b1-3)[Fuc(a1-4)]GlcNAc
# Procedure, shortened: as §1
# [27] = molecular target: Neu5Ac(a2-3)Gal(b1-3)[Fuc(a1-4)]GlcNAc(b1-3)Gal(b1-3)[Fuc(a1-4)]GlcNAc
# Procedure, shortened: as §1
# [28] = molecular target: Neu5Ac(a2-3)Gal(b1-3)[Fuc(a1-4)]GlcNAc(b1-3)Gal(b1-4)[Fuc(a1-3)]GlcNAc
# Procedure, shortened: as §1
# [29] = molecular target: Neu5Ac(a2-3)Gal(b1-3)[GlcNAc(b1-6)]GalNAc
# Procedure, shortened: as §1
# [30] = molecular target: Neu5Ac(a2-3)Gal(b1-3)[Neu5Ac(a2-6)]GalNAc
# Procedure, shortened: as §1
# [31] = molecular target: Neu5Ac(a2-3)Gal(b1-3)[Neu5Ac(a2-6)]GlcNAc(b1-3)[Fuc(a1-3)[Gal(b1-4)]GlcNAc(b1-6)]Gal(b1-4)Glc
# Procedure, shortened: as §1
# [32] = molecular target: Neu5Ac(a2-3)Gal(b1-3)]Neu5Ac(a2-3)Gal(b1-4)]GlcNAc
# Procedure, shortened: as §1
binder,measurement,setting,value
B1,glycan array binding signal (z-score),[1],-0.684
same,glycan array binding signal (z-score),[2],-0.537
same,glycan array binding signal (z-score),[3],-0.687
same,glycan array binding signal (z-score),[4],-0.522
same,glycan array binding signal (z-score),[5],-0.537
same,glycan array binding signal (z-score),Man(a1-3)[Man(a1-6)]Man,-0.44
same,glycan array binding signal (z-score),[6],-0.324
same,glycan array binding signal (z-score),[7],-0.053
same,glycan array binding signal (z-score),[8],-0.56
same,glycan array binding signal (z-score),[9],-0.53
same,glycan array binding signal (z-score),[10],-0.665
same,glycan array binding signal (z-score),Man(a1-6)Man,3.2
same,glycan array binding signal (z-score),Man(b1-4)GlcNAc,-0.365
same,glycan array binding signal (z-score),MurNAc(b1-4)GlcNAc,-0.365
same,glycan array binding signal (z-score),Neu5Ac(a2-3)Gal,-0.332
same,glycan array binding signal (z-score),[11],-0.622
same,glycan array binding signal (z-score),[12],-0.587
same,glycan array binding signal (z-score),[13],-0.499
same,glycan array binding signal (z-score),[14],-0.554
same,glycan array binding signal (z-score),[15],1.41
same,glycan array binding signal (z-score),[16],-0.39
same,glycan array binding signal (z-score),[17],-0.373
same,glycan array binding signal (z-score),[18],-0.577
same,glycan array binding signal (z-score),[19],-0.312
same,glycan array binding signal (z-score),[20],-0.628
same,glycan array binding signal (z-score),[21],-0.583
same,glycan array binding signal (z-score),[22],0.074
same,glycan array binding signal (z-score),[23],-0.635
same,glycan array binding signal (z-score),[24],1.94
same,glycan array binding signal (z-score),[25],-0.267
same,glycan array binding signal (z-score),[26],0.198
same,glycan array binding signal (z-score),[27],-0.526
same,glycan array binding signal (z-score),[28],-0.254
same,glycan array binding signal (z-score),[29],0.092
same,glycan array binding signal (z-score),[30],-0.352
same,glycan array binding signal (z-score),[31],-0.629
same,glycan array binding signal (z-score),[32],0.083
